# This is one part of the list.
# B1: Dectin2 (Homo sapiens), Q6EIG7 (protein)
# chain: MMQEQQPQSTEKRGWLSLRLWSVAGISIALLSACFIVSCVVTYHFTYGETGKRLSELHSYHSSLTCFSEGTKVPAWGCCPASWKSFGSSCYFISSEEKVWSKSEQNCVEMGAHLVVFNTEAEQNFIVQQLNESFSYFLGLSDPQGNNNWQWIDKTPYEKNVRFWHLGEPNHSAEQCASIVFWKPTGWGWNDVICETRRNSICEMNKIYL
# Legend:
# Assay in all cases: glycan array binding signal (z-score within array); higher = stronger binding
# Conditions in all cases: glycan notation: IUPAC condensed, linker removed
# [1] = target: Neu5Ac(a2-3)Gal(b1-4)GlcNAc(b1-3)[Neu5Ac(a2-3)Gal(b1-4)GlcNAc(b1-6)]GalNAc
# In short: (§1)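 Glycan array data came from 3228 arrays in the Consortium for Functional Glycomics database, and only arrays with an available protein sequence were kept. Glycan names were put into IUPAC-condensed notation, and columns mapping to the same glycan were averaged. The binding signal is a within-array Z-score, averaged across arrays of one protein sequence run at different concentrations or buffers and across linkers. A negative Z-score can be read as non-binding.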
# [2] = target: Neu5Ac(a2-3)Gal(b1-4)GlcNAc(b1-6)GalNAc
# In short: as §1
# [3] = target: Neu5Ac(a2-3)Gal(b1-4)GlcNAc(b1-6)[Gal(b1-3)]GalNAc
# In short: as §1
# [4] = target: Neu5Ac(a2-3)Gal(b1-4)GlcNAc(b1-6)[Neu5Ac(a2-3)Gal(b1-3)]GalNAc
# In short: as §1
# [5] = target: Neu5Ac(a2-3)Gal(b1-4)GlcNAc6S
# In short: as §1
# [6] = target: Neu5Ac(a2-3)Gal(b1-4)[Fuc(a1-3)]GlcNAc
# In short: as §1
# [7] = target: Neu5Ac(a2-3)Gal(b1-4)[Fuc(a1-3)]GlcNAc(b1-2)Man
# In short: as §1
# [8] = target: Neu5Ac(a2-3)Gal(b1-4)[Fuc(a1-3)]GlcNAc(b1-3)Gal
# In short: as §1
# [9] = target: Neu5Ac(a2-3)Gal(b1-4)[Fuc(a1-3)]GlcNAc(b1-3)Gal(b1-4)GlcNAc
# In short: as §1
# [10] = target: Neu5Ac(a2-3)Gal(b1-4)[Fuc(a1-3)]GlcNAc(b1-3)Gal(b1-4)[Fuc(a1-3)]GlcNAc(b1-3)Gal(b1-4)[Fuc(a1-3)]GlcNAc
# In short: as §1
# [11] = target: Neu5Ac(a2-3)Gal(b1-4)[Fuc(a1-3)]GlcNAc(b1-3)GalNAc
# In short: as §1
# [12] = target: Neu5Ac(a2-3)Gal(b1-4)[Fuc(a1-3)]GlcNAc(b1-6)[Gal(b1-3)]GalNAc
# In short: as §1
# [13] = target: Neu5Ac(a2-3)Gal(b1-4)[Fuc(a1-3)]GlcNAc(b1-6)[Neu5Ac(a2-3)Gal(b1-3)]GalNAc
# In short: as §1
# [14] = target: Neu5Ac(a2-3)Gal(b1-4)[Fuc(a1-3)]GlcNAc6S
# In short: as §1
# [15] = target: Neu5Ac(a2-3)Gal6S(b1-4)GlcNAc
# In short: as §1
# [16] = target: Neu5Ac(a2-3)Gal6S(b1-4)[Fuc(a1-3)]GlcNAc
# In short: as §1
# [17] = target: Neu5Ac(a2-3)GalNAc
# In short: as §1
# [18] = target: Neu5Ac(a2-3)GalNAc(b1-4)GlcNAc
# In short: as §1
# [19] = target: Neu5Ac(a2-3)[GalNAc(b1-4)]Gal(b1-4)Glc
# In short: as §1
# [20] = target: Neu5Ac(a2-3)[GalNAc(b1-4)]Gal(b1-4)GlcNAc
# In short: as §1
# [21] = target: Neu5Ac(a2-3)[GalNAc(b1-4)]Gal(b1-4)GlcNAc(b1-3)GalNAc
# In short: as §1
# [22] = target: Neu5Ac(a2-3)[Neu5Ac(a2-6)]GalNAc
# In short: as §1
# [23] = target: Neu5Ac(a2-6)Gal
# In short: as §1
# [24] = target: Neu5Ac(a2-6)Gal(b1-3)GlcNAc(b1-3)[Gal(b1-4)GlcNAc(b1-6)]Gal(b1-4)Glc
# In short: as §1
# [25] = target: Neu5Ac(a2-6)Gal(b1-4)Glc
# In short: as §1
# [26] = target: Neu5Ac(a2-6)Gal(b1-4)GlcNAc
# In short: as §1
# [27] = target: Neu5Ac(a2-6)Gal(b1-4)GlcNAc(b1-2)Man
# In short: as §1
# [28] = target: Neu5Ac(a2-6)Gal(b1-4)GlcNAc(b1-2)Man(a1-3)Man(b1-4)GlcNAc(b1-4)GlcNAc
# In short: as §1
# [29] = target: Neu5Ac(a2-6)Gal(b1-4)GlcNAc(b1-2)Man(a1-3)[Gal(b1-4)GlcNAc(b1-2)Man(a1-6)]Man(b1-4)GlcNAc(b1-4)GlcNAc
# In short: as §1
# [30] = target: Neu5Ac(a2-6)Gal(b1-4)GlcNAc(b1-2)Man(a1-3)[GlcNAc(b1-4)][Neu5Ac(a2-6)Gal(b1-4)GlcNAc(b1-2)Man(a1-6)]Man(b1-4)GlcNAc(b1-4)GlcNAc
# In short: as §1
# [31] = target: Neu5Ac(a2-6)Gal(b1-4)GlcNAc(b1-2)Man(a1-3)[Man(a1-6)]Man(b1-4)GlcNAc(b1-4)GlcNAc
# In short: as §1
# [32] = target: Neu5Ac(a2-6)Gal(b1-4)GlcNAc(b1-2)Man(a1-3)[Neu5Ac(a2-3)Gal(b1-4)GlcNAc(b1-2)Man(a1-6)]Man(b1-4)GlcNAc(b1-4)GlcNAc
# In short: as §1
# [33] = target: Neu5Ac(a2-6)Gal(b1-4)GlcNAc(b1-2)Man(a1-3)[Neu5Ac(a2-6)Gal(b1-4)GlcNAc(b1-2)Man(a1-6)]Man(b1-4)GlcNAc(b1-4)GlcNAc
# In short: as §1
# [34] = target: Neu5Ac(a2-6)Gal(b1-4)GlcNAc(b1-2)Man(a1-3)[Neu5Ac(a2-6)Gal(b1-4)GlcNAc(b1-2)Man(a1-6)]Man(b1-4)GlcNAc(b1-4)[Fuc(a1-6)]GlcNAc
# In short: as §1
# [35] = target: Neu5Ac(a2-6)Gal(b1-4)GlcNAc(b1-2)Man(a1-6)Man(b1-4)GlcNAc(b1-4)GlcNAc
# In short: as §1
# [36] = target: Neu5Ac(a2-6)Gal(b1-4)GlcNAc(b1-2)Man(a1-6)[Gal(b1-4)GlcNAc(b1-2)Man(a1-3)]Man(b1-4)GlcNAc(b1-4)GlcNAc
# In short: as §1
# [37] = target: Neu5Ac(a2-6)Gal(b1-4)GlcNAc(b1-2)Man(a1-6)[GlcNAc(b1-2)Man(a1-3)]Man(b1-4)GlcNAc(b1-4)GlcNAc
# In short: as §1
# [38] = target: Neu5Ac(a2-6)Gal(b1-4)GlcNAc(b1-2)Man(a1-6)[Man(a1-3)]Man(b1-4)GlcNAc(b1-4)GlcNAc
# In short: as §1
# [39] = target: Neu5Ac(a2-6)Gal(b1-4)GlcNAc(b1-2)[Neu5Ac(a2-6)Gal(b1-4)GlcNAc(b1-4)]Man(a1-3)[GlcNAc(b1-4)][Neu5Ac(a2-6)Gal(b1-4)GlcNAc(b1-2)[Neu5Ac(a2-6)Gal(b1-4)GlcNAc(b1-6)]Man(a1-6)]Man(b1-4)GlcNAc(b1-4)GlcNAc
# In short: as §1
# [40] = target: Neu5Ac(a2-6)Gal(b1-4)GlcNAc(b1-2)[Neu5Ac(a2-6)Gal(b1-4)GlcNAc(b1-4)]Man(a1-3)[GlcNAc(b1-4)][Neu5Ac(a2-6)Gal(b1-4)GlcNAc(b1-4)Man(a1-6)]Man(b1-4)GlcNAc(b1-4)GlcNAc
# In short: as §1
# [41] = target: Neu5Ac(a2-6)Gal(b1-4)GlcNAc(b1-2)[Neu5Ac(a2-6)Gal(b1-4)GlcNAc(b1-6)]Man(a1-6)[Neu5Ac(a2-6)Gal(b1-4)GlcNAc(b1-2)Man(a1-3)][GlcNAc(b1-4)]Man(b1-4)GlcNAc(b1-4)GlcNAc
# In short: as §1
# [42] = target: Neu5Ac(a2-6)Gal(b1-4)GlcNAc(b1-3)Gal(b1-3)GlcNAc
# In short: as §1
# [43] = target: Neu5Ac(a2-6)Gal(b1-4)GlcNAc(b1-3)Gal(b1-4)GlcNAc
# In short: as §1
# [44] = target: Neu5Ac(a2-6)Gal(b1-4)GlcNAc(b1-3)Gal(b1-4)GlcNAc(b1-2)Man(a1-3)[Neu5Ac(a2-6)Gal(b1-4)GlcNAc(b1-3)Gal(b1-4)GlcNAc(b1-2)Man(a1-6)]GalNAc
# In short: as §1
# [45] = target: Neu5Ac(a2-6)Gal(b1-4)GlcNAc(b1-3)Gal(b1-4)GlcNAc(b1-3)Gal(b1-4)GlcNAc
# In short: as §1
# [46] = target: Neu5Ac(a2-6)Gal(b1-4)GlcNAc(b1-3)Gal(b1-4)GlcNAc(b1-3)Gal(b1-4)GlcNAc(b1-2)Man(a1-3)[Neu5Ac(a2-6)Gal(b1-4)GlcNAc(b1-3)Gal(b1-4)GlcNAc(b1-3)Gal(b1-4)GlcNAc(b1-2)Man(a1-6)]GalNAc
# In short: as §1
binder,measurement,setting,value
B1,glycan array binding signal (z-score),[1],-0.192
same,glycan array binding signal (z-score),[2],-0.205
same,glycan array binding signal (z-score),[3],0.201
same,glycan array binding signal (z-score),[4],-0.195
same,glycan array binding signal (z-score),[5],-0.201
same,glycan array binding signal (z-score),[6],-0.202
same,glycan array binding signal (z-score),[7],-0.193
same,glycan array binding signal (z-score),[8],-0.198
same,glycan array binding signal (z-score),[9],-0.132
same,glycan array binding signal (z-score),[10],-0.098
same,glycan array binding signal (z-score),[11],-0.099
same,glycan array binding signal (z-score),[12],-0.113
same,glycan array binding signal (z-score),[13],-0.104
same,glycan array binding signal (z-score),[14],-0.192
same,glycan array binding signal (z-score),[15],-0.173
same,glycan array binding signal (z-score),[16],-0.193
same,glycan array binding signal (z-score),[17],0.723
same,glycan array binding signal (z-score),[18],-0.168
same,glycan array binding signal (z-score),[19],-0.18
same,glycan array binding signal (z-score),[20],-0.176
same,glycan array binding signal (z-score),[21],-0.049
same,glycan array binding signal (z-score),[22],0.342
same,glycan array binding signal (z-score),[23],-0.194
same,glycan array binding signal (z-score),[24],-0.178
same,glycan array binding signal (z-score),[25],-0.165
same,glycan array binding signal (z-score),[26],-0.182
same,glycan array binding signal (z-score),[27],-0.181
same,glycan array binding signal (z-score),[28],-0.065
same,glycan array binding signal (z-score),[29],0.18
same,glycan array binding signal (z-score),[30],-0.169
same,glycan array binding signal (z-score),[31],-0.064
same,glycan array binding signal (z-score),[32],-0.182
same,glycan array binding signal (z-score),[33],-0.151
same,glycan array binding signal (z-score),[34],-0.123
same,glycan array binding signal (z-score),[35],-0.099
same,glycan array binding signal (z-score),[36],-0.188
same,glycan array binding signal (z-score),[37],-0.207
same,glycan array binding signal (z-score),[38],-0.144
same,glycan array binding signal (z-score),[39],-0.192
same,glycan array binding signal (z-score),[40],-0.193
same,glycan array binding signal (z-score),[41],-0.171
same,glycan array binding signal (z-score),[42],-0.17
same,glycan array binding signal (z-score),[43],-0.175
same,glycan array binding signal (z-score),[44],-0.114
same,glycan array binding signal (z-score),[45],-0.182
same,glycan array binding signal (z-score),[46],0.455

# Reference: the supplement of paper PMC8728848
